# Measurements reported in patent US12599649B2, “Bioactive polypeptides for improvements in plant protection, growth and productivity” (priority 2017, dated 2026).
# Key:
# [1] = system: soybean; assay: Soybean seed treatment with Flg22 polypeptides and RHPP, yield (Example 10); type: in vivo; settings: 12 locations
# Excerpt: A third study was set up to look at soybean seed treatment benefits of Bt.4Q7 Flg22, RI Bt.4Q7Flg22, Ec.RI Flg22, and RHPP as a seed treatment on soybean.
# [2] = system: peppers (Capsicum); assay: Foliar treatment of pepper varieties RK and HHW, yield (Examples 13, 26); type: in vivo
# Method: Foliar treatments of Bt.4Q7 Flg22 and Ec.Flg22 bioactive priming polypeptides were applied using small scale plots designed to simulate commercial growing conditions for peppers (Capsicum). Two varieties of pepper: Red Knight (RK) and Hungarian Hot Wax (HHW) were grown from 6-week old transplants in raised beds covered with black plastic mulch that had good water-holding characteristics and a pH of 5.8-6.6. Plants were grown using drip irrigation and fertilizer applied following grower guidelines throughout the growing season to ensure optimum plant growth and yields. Small raised bed plots were designed to simulate the planting densities used by commercial growers that generally plant approximately 10,000-14,000 plants per acre in double rows 14-18 inches (35.6 to 46 cm) apart on plastic mulched beds with 16-24 inches (40.6 to 61 cm) between plants in the row and with the beds spaced 5.0-6.5 feet ([…]) apart from their centers. A single row of peppers also can be planted on each bed (5,000-6,500 plants per acre or 12,355-16,062 plants per hectare).
# Effects of the foliar applications on pepper yield were determined for two separate harvests using a once over harvest approach and normalized to the yield of the control plants. The average percentage change in yield for each treatment over the yield for the control plants is reported as pounds/acre (lbs/Ac) in Table 29.
# Foliar treatment of Gm.RHPP (SEQ ID NO: 600) was applied as an exogenous spray at the first-bloom stage to increase yield in two pepper varieties. Foliar treatment of Gm.RHPP was applied using small scale plots designed to simulate commercial growing conditions for peppers (Capsicum) as described in Example 13. Foliar applications with the Gm.RHPP bioactive priming polypeptide were applied at the first flower stage, on two varieties of pepper, Red Knight (RK) and Hungarian Hot Wax (HHW). […] Effects of the foliar applications on pepper yield were determined for two separate harvests using a once over harvest approach and normalized to the yield of the control plants. The average percentage change in yield over the yield for the control plants is reported in Table 42, as the percent change per total weight (lbs/Ac) of peppers harvested. Average percent change in yield is reported for the 2 replicate harvests (trials) for the RK and HHW pepper varieties and then as a combined average for both varieties.
# [3] = system: corn; assay: RHPP on V5-V8 corn, leaf architecture (Example 22); type: in vivo
# Excerpt: Retro inverso RHPP may be modified with C-terminal amidation prior to application. […] The increase in leaf angle has impactful advantages for use in agriculture in this area. This is particularly relevant with higher planting densities used to maximize yield in a field environment. Foliar applications of the RHPP polypeptide in maize (corn) is useful for changing the leaf angle thus contributing to a smaller leaf angle which results in an upright leaf orientation. This phenotype can be beneficial for increasing the leaf area index, reducing maize shade syndrome, and improving photosynthetic efficiency. In addition, providing RHPP as a foliar formulation to maximize canopy development and total light penetrance is key to increasing vegetative growth of the plants prior to the initiation of the grain filling stage.
# [4] = system: soybean; assay: Foliar RHPP on R1 soybean, plant height (Example 23); type: in vivo; settings: 300 nM + 0.1% ALLIGARE SURFACE
# Method: RHPP bioactive priming polypeptide (SEQ ID NO: 600) was also applied as foliar treatment to R1 stage hybrid soybean (Beck's 297R4) with 0.1% (v/v) non-ionic surfactant ([…] SURFACE) using a spray bottle delivering approximately 1.2 ml/plant. This experiment was performed to look at the effects of RHPP on plant growth and was conducted using a total of 18 plants per treatment group. […] R1 stage soybean plants were treated with nothing (non-treated control), […] SURFACE surfactant applied at a concentration of 0.1% (v/v) or the RHPP polypeptide (300 nM) applied in combination with […] SURFACE surfactant (0.1% v/v). Height for each plant was recorded at the time of spray and again at 16 days post foliar application and average growth parameters were compared between foliar treatments (Table 39).
# [5] = system: corn; assay: Foliar Gm.RHPP on V5 corn, yield (Example 39); type: in vivo
# Method: In total, the trial was conducted at 6 locations in the US Midwest (IL, IN, IA), with 1-2 hybrids per location and 3 replicated plots per hybrid. […] The average change in Bu/Ac was compared to the yield of plants grown from the surfactant control and reported as the combined average yield (Bu/Ac) for the 6 locations (11 replicated plots in total) and as overall change in Bu/Ac as compared to control plants.
# [6] = system: squash; assay: Foliar Bt.4Q7Flg22 or Gm.RHPP on Crookneck squash, yield (Example 42); type: in vivo
# Excerpt: Yield comparisons were made between the plants treated with the polypeptides compared to surfactant only control plants, with three replicates per treatment. […] Replicates with average yield per plant 50% above or 50% below the median yield for the trial were excluded as outliers.
# Squash plants were cultivated in sandy loam soil as follows. 2.5 cm holes were cut in 0.76 meters wide plastic covered mounds, two rows per mound, holes spaced 0.46 meters apart within each row. Rows were staggered within the mound. Mounds were spaced 1.2 meters apart. Three squash seeds were planted per hole and thinned to a single plant per hole 14 days after planting. Drip irrigation tubing was laid in the center of each mound, and plants were watered as necessary.
# [7] = system: Phakopsora pachyrhizi; assay: Asian soybean rust severity on soybean, Paraguay field trials (Example 53); type: in vivo; settings: 150 and 300 mL/Ha, two foliar applications from R1
# [8] = system: Cercospora kikuchii; assay: Cercospora leaf blight severity on soybean, Paraguay field trials (Example 53); type: in vivo; settings: 150 and 300 mL/Ha, two foliar applications from R1
# [9] = system: soybean; assay: Phytotoxicity and defoliation of soybean, Paraguay field trials (Example 53); type: in vivo; settings: Yatytay site
# [10] = system: soybean; assay: Flg22 and RHPP on R2 soybean, field yield (Examples 3-4); settings: 11 sites
# [11] = 8.0 Fl. oz/Ac, 6 locations combined
# [12] = V5 corn, foliar 100 μM at 8.0 Fl. oz/Ac, 6 locations
# [13] = Bt.4Q7Flg22 2.0 Fl. oz/Ac or Gm.RHPP 3.2 Fl. oz/Ac
substance,measurement,setting,value
RHPP: root hair promoting polypeptide derived from Glycine max (GGIRAAPTGNER; Glycine max),win rate,[1],64%
same,yield advantage,[1],0.4 Bu/Ac
same,increase in pepper yield over control,"[2]; HHW variety, 1 Fl. oz/Ac",46%
same,combined average increase in pepper yield (lbs/Ac) over control,"[2]; RK and HHW varieties combined, 1 Fl. oz/Ac",67%
same,increase in pepper yield over control,"[2]; RK variety, 1 Fl. oz/Ac",87%
same,Combined Avg. Percent Change Yield Total Number (lbs/Ac) RK and HHW,"[2]; both pepper varieties, foliar 1 Fl. oz/Ac, vs water control",+67%
same,Avg. Percent Change Yield Total Weight (lbs/Ac) Hungarian Hot Wax,"[2]; pepper variety HHW, foliar 1 Fl. oz/Ac at first flower, vs water control, 2 harvests",+46%
same,Avg. Percent Change Yield Total Weight (lbs/Ac) Red Knight,"[2]; pepper variety RK, foliar 1 Fl. oz/Ac at first flower, vs water control, 2 harvests",+87%
same,leaf architecture phenotype,[3],distinct leaf architecture phenotype with an upright leaf orientation and more erect leaves
same,plant growth (plant height) vs surfactant alone and non-treated control,[4]; 16 days post application,increased plant growth
same,Height (cm),"[4]; soybean Beck's 297R4, R1 stage",19.9 cm
same,Change in height (cm),"[4]; soybean Beck's 297R4, R1 stage, 16 days post foliar application",4.6 cm
same,average yield,[5]; [11],more than 209 Bu/Ac
same,yield increase vs surfactant control,[5]; [11],3.52 Bu/Ac
same,Average Change in Bu/Ac compared to surfactant only control,[5]; [12],+3.52 Bu/Ac
same,Average Yield Bu/Ac,[5]; [12],209.67 Bu/Ac
same,win rate,"[5]; V5 corn, foliar 100 μM at 8.0 Fl. oz/Ac, vs surfactant only control",64%
same,change in fruit weight vs surfactant only control,[6]; [13],4.4%
same,increase in weight of harvested squash fruit,[6]; [13],31.7 grams per plant
same,Average squash fruit weight (grams) per plant,"[6]; Crookneck squash, foliar at first bloom, two harvests, Bt.4Q7Flg22 2 fl oz/Ac, Gm.RHPP 3.2 fl oz/Ac",748.4 grams
same,less Asian soybean rust leaf area damage compared to untreated control,[7],10.5-11.3%
same,less Cercospora leaf area damage compared to untreated control,[8],3.3-4.5%
same,defoliation,"[9]; R7, 150 mL/Ha",96%
same,defoliation,"[9]; R7, 300 mL/Ha",70%
same,yield advantage,"[10]; Example 4, R2, 4 Fl. oz/Ac",0.31 Bu/Ac
same,win rate,"[10]; second study, seed treatment",73%
same,yield increase,"[10]; second study, seed treatment",1.2 bu/Ac
same,yield advantage on top of foliar fertilizer,"[10]; third study, 8 fl oz/Ac",1 Bu/AC
